Source: paper PMC4336329 (PLoS ONE, 2015)
Hit rate of the full screen: of about 310,000 compounds, about 2,200 (0.71%) showed an effect of 50% or more. Effects have a minus sign here. This is one part of the list.

Target: human ether-à-go-go-related gene (hERG) potassium channel (human, UniProt Q12809)
Assay: primary screen, population patch clamp on CHO cells stably expressing hERG

human ether-à-go-go-related gene (hERG) potassium channel, sequence (Q12809 whole entry, looked up): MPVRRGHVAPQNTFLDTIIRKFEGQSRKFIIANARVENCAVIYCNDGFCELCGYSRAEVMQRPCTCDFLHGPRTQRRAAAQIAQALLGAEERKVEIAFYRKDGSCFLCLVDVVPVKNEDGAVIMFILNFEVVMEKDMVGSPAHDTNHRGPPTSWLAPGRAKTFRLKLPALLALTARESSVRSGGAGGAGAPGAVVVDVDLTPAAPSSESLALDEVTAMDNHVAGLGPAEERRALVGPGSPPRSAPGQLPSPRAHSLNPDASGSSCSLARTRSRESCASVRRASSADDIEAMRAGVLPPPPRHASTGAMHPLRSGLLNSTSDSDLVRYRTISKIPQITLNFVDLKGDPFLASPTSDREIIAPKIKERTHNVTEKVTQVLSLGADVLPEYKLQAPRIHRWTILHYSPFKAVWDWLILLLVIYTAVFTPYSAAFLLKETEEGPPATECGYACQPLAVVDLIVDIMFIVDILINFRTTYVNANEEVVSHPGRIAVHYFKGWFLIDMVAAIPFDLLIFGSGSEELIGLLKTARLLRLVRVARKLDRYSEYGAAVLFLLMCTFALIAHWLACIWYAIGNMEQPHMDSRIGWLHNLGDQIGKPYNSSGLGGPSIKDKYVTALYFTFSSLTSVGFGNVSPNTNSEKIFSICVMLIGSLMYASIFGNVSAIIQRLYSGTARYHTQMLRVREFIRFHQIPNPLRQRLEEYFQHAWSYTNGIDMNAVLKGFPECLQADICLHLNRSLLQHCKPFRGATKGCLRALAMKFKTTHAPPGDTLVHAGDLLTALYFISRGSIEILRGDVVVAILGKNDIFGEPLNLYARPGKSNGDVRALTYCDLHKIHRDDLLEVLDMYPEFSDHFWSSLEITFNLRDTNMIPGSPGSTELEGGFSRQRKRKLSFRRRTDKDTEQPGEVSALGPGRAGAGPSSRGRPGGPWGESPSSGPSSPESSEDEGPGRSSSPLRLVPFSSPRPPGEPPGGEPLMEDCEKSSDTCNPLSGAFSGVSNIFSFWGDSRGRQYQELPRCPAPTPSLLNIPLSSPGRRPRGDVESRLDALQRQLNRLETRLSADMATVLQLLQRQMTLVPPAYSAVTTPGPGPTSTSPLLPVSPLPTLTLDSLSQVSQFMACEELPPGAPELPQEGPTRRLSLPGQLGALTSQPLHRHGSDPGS

Going from `Cn1c(O)c(N=Nc2cccc(S(=O)(=O)N3CCOCC3)c2)c(=O)n(C)c1=O` to `Cc1ccc(NC(=O)c2ccc(N3CCOCC3)c([N+](=O)[O-])c2)cc1S(=O)(=O)N1CCOCC1`, the “hERG current change (%, negative = inhibition) at 1uM” value falls from 7.22% to -0.421%.

First: COc1cccc(N=C2CC(C)(C)CC(=O)/C2=C(/O)c2ccccc2)c1
Second: COc1cccc(N=CC2=C(O)CC(C)(C)CC2=O)c1
The “hERG current change (%, negative = inhibition) at 1uM” value of the first is lower: -0.794% for the first, 2.84% for the second.

First: CCn1c(C)nc2cc(C(=O)NNC(=S)NC(=O)c3ccc(OC)cc3)ccc21
Second: COc1ccc(NC(=O)c2ccccc2NC(=O)c2ccco2)c(OC)c1
The “hERG current change (%, negative = inhibition) at 1uM” value of the first is higher: 0.14% for the first, -27.6% for the second.

Compared with `C[C@@H]1C(NC(=O)c2ccccc2)CC2CC1C2(C)C` (stereo partly shown), `CCO[C@@H]1OC(C(=O)NC2CC2)=C[C@H](c2ccccc2)[C@H]1CCCO` is higher in “hERG current change (%, negative = inhibition) at 1uM” value: 8.79% for the first, 13.1% for the second.

First: C=CCn1c(SCC(=O)Nc2ccccc2)nc2scc(-c3cccs3)c2c1=O
Second: COc1ccccc1NC(=O)CSc1nnnn1-c1ccccc1F
The “hERG current change (%, negative = inhibition) at 1uM” value of the first is higher: 11% for the first, 6.97% for the second.

Compared with `COc1ccc(S(=O)(=O)N(CCN2CCOCC2)Cc2cc(OC)ccc2OC)cc1`, `COc1ccc(NS(=O)(=O)c2cccc(C(=O)OCC(=O)N3CCN(c4ccc(OC)cc4)CC3)c2)cc1` is lower in “hERG current change (%, negative = inhibition) at 1uM” value: 10.9% for the first, 6.45% for the second.

Compared with `Cc1ccc(C)c(NC2=C(Cl)C(=O)OC2OC(C)C)c1` (stereo not shown), `Cc1ccccc1Nc1cc2ccccc2c(=O)[nH]1` is lower in “hERG current change (%, negative = inhibition) at 1uM” value: 8.09% for the first, 1.06% for the second.

Compared with `O=C(C1CCN(S(=O)(=O)N2CCOCC2)CC1)N1CCN(Cc2ccccc2)CC1`, `O=C(c1cccc(C(=O)N2CCN(Cc3ccccc3)CC2)c1)N1CCN(Cc2ccccc2)CC1` is higher in “hERG current change (%, negative = inhibition) at 1uM” value: -3.78% for the first, 4.62% for the second.

Compared with `O=S(=O)(NCc1ccccc1)c1ccc2c(c1)OCCO2`, `O=S(=O)(c1ccc2c(c1)OCCO2)N1CCN(c2ncnc3sccc23)CC1` is lower in “hERG current change (%, negative = inhibition) at 1uM” value: 6.44% for the first, -1.71% for the second.

Going from `Cc1c(C(=O)NCCN(C)C)oc2ccc(S(=O)(=O)N3CCCC3)cc12` to `O=C(CCn1ccc2cc(S(=O)(=O)N3CCCC3)ccc21)NCCc1ccccc1`, the “hERG current change (%, negative = inhibition) at 1uM” value rises from 8.92% to 11.5%.

Going from `Cc1ccc(C(O)(c2ccc(C)c(C)c2)C2CN3CCC2CC3)cc1C.Cl` (stereo not shown) to `Cc1ccc(-n2c(=S)sc3c(=O)n(-c4ccccc4C)c(SCC(=O)O)nc32)cc1C`, the “hERG current change (%, negative = inhibition) at 1uM” value rises from -41.2% to 15%.

Going from `Cc1cccc(Nc2nc(N)c([N+](=O)[O-])c(N3CCC(C)CC3)n2)c1` to `CC1=C(C(=O)Nc2cc(C(=O)N3CCC(C)CC3)ccc2C)SCCO1`, the “hERG current change (%, negative = inhibition) at 1uM” value rises from -0.77% to 16.6%.

First: CC(=O)Nc1ccc(CN2CCN(CC=C(C)C)C(CCO)C2)cc1 (stereo not shown)
Second: COc1ccc(CN2CCCC(CO)(Cc3ccc(F)cc3F)C2)cc1 (stereo not shown)
The “hERG current change (%, negative = inhibition) at 1uM” value of the first is lower: 12.6% for the first, 15.1% for the second.

First: O=C(CC(Cc1ccccc1)c1ccco1)NCc1ccco1 (stereo not shown)
Second: O=C(Nc1cccnc1)c1cc2c(ccc3ccccc32)o1
The “hERG current change (%, negative = inhibition) at 1uM” value of the first is lower: 9.33% for the first, 9.97% for the second.

Going from `COc1cc(F)ccc1S(=O)(=O)NCc1cccnc1` to `COc1ccccc1CNC(=O)c1cccs1`, the “hERG current change (%, negative = inhibition) at 1uM” value falls from 16.2% to 12.4%.

Going from `CCOc1ccc2ccccc2c1/C=N/NC(=O)CC1(C)OCCCO1` to `O=C(c1cc(COc2c(F)cccc2F)on1)N1CCC(c2ccccc2F)C1` (stereo not shown), the “hERG current change (%, negative = inhibition) at 1uM” value falls from 11.7% to 11%.

Compared with `NS(=O)(=O)c1cc(C(=O)OCC(=O)Nc2ccc(N3CCCCC3)cc2)ccc1Cl`, `C1COCCO1.COc1ccc(NS(=O)(=O)c2ccc(N3CCOCC3)c(NC(=O)c3ccccc3Cl)c2)cc1` is higher in “hERG current change (%, negative = inhibition) at 1uM” value: 10.4% for the first, 10.8% for the second.

Compared with `CCN(CC)S(=O)(=O)c1cc(C(=O)c2nccn2C)ccc1Cl`, `CCN(CC)S(=O)(=O)c1ccc(NC2c3ncccc3C(=O)N2Cc2ccccc2)cc1` (stereo not shown) is lower in “hERG current change (%, negative = inhibition) at 1uM” value: 13% for the first, -10% for the second.

Going from `Cn1c(SCC(=O)Nc2cccc(S(=O)(=O)NC3=NCCCCC3)c2)nnc1-c1ccncc1` to `Cc1c(C(=O)C(=O)N2CCCc3ccccc32)c2ccccc2n1C`, the “hERG current change (%, negative = inhibition) at 1uM” value falls from 5.49% to 3.27%.

Compared with `CCN(CC(=O)Nc1cc(Cl)ccc1C)C(=O)CCS(=O)(=O)c1ccc(C)cc1`, `CCOC(=O)N1CCN(CCC(=O)Nc2cc(C)ccc2C)CC1` is higher in “hERG current change (%, negative = inhibition) at 1uM” value: 7.96% for the first, 18.9% for the second.

Compared with `CCCc1cc(=O)[nH]c(SCC(=O)c2cc(C)n(C(C)COC)c2C)n1` (stereo not shown), `CCCNc1nc(C)c(C(C)=O)cc1C#N` is higher in “hERG current change (%, negative = inhibition) at 1uM” value: 3.47% for the first, 11.9% for the second.

Going from `CNC(=O)Nc1nnc(C(C)(C)C)s1` to `CC(=O)CSc1nnc(C(F)(F)F)n1C`, the “hERG current change (%, negative = inhibition) at 1uM” value falls from 13.9% to 8.35%.

Going from `NCC(c1ccccc1Cl)c1c[nH]c2ccccc12` (stereo not shown) to `S=C(NCCC(c1ccccc1)c1ccccc1)Nc1ccc(Cl)cc1`, the “hERG current change (%, negative = inhibition) at 1uM” value rises from 9.03% to 12.2%.

Going from `COc1cc(=O)[nH]c(=O)n1C(=O)Cc1ccccc1` to `CCn1c(=O)c(C(=O)CN2CCOCC2)c(N)n(Cc2ccccc2)c1=O`, the “hERG current change (%, negative = inhibition) at 1uM” value falls from 15.3% to -0.674%.

Compared with `COc1cccc(N2CC(NS(=O)(=O)c3ccc(Cl)cc3)CC2=O)c1` (stereo not shown), `Cc1cc(N)n(-c2ccc(S(=O)(=O)c3ccc(C(C)C)cc3)cc2)n1` is lower in “hERG current change (%, negative = inhibition) at 1uM” value: 7.63% for the first, 1.96% for the second.

First: CC(CC12CC3CC(CC(C3)C1)C2)NCc1ccccc1O.Cl (stereo not shown)
Second: C=CCc1ccccc1OCC(CN1CCCCC1)OC(C)=O.Cl (stereo not shown)
The “hERG current change (%, negative = inhibition) at 1uM” value of the first is higher: 19.3% for the first, -12.5% for the second.

Going from `CC#CC(=O)N1CCCC(C(=O)c2ccc(SC)cc2)C1` (stereo not shown) to `O=C(O)c1ccccc1C(=O)c1ccc(Cl)cc1`, the “hERG current change (%, negative = inhibition) at 1uM” value rises from 6.72% to 14.1%.

Compared with `CC(=Nc1ccc2c(c1)CCC2)c1c(O)n(-c2ccccc2)c(=O)[nH]c1=O`, `CC(=O)c1cccc(NC(=O)C2(c3ccccc3)CC2(Cl)Cl)c1` (stereo not shown) is lower in “hERG current change (%, negative = inhibition) at 1uM” value: 10.4% for the first, 0.139% for the second.

Compared with `C=CCn1c(C)c(C(C)=O)c(N2CCCC2)nc1=S`, `Cc1occc1C(=O)N1CCN(c2ccc(Cl)cc2)CC1` is higher in “hERG current change (%, negative = inhibition) at 1uM” value: 10.8% for the first, 12.8% for the second.

Compared with `COc1cc(OC)cc(C(=O)NCC(=O)OCC(=O)N2CCc3ccccc32)c1`, `CCOc1ccc(C(=O)NCC(=O)OCC(=O)Nc2nnc(-c3ccccc3)o2)cc1` is lower in “hERG current change (%, negative = inhibition) at 1uM” value: 7.14% for the first, 5.29% for the second.

Compared with `O=C(CCn1c(=O)oc2ccccc21)Nc1nccs1`, `O=C(CN1C(=O)c2ccccc2C1=O)Nc1nnc(C2CCCO2)s1` (stereo not shown) is higher in “hERG current change (%, negative = inhibition) at 1uM” value: 12.3% for the first, 14.4% for the second.

Going from `Cc1cc(C)c(S(C)(=O)=O)c(Sc2ccc(Cl)cc2)n1` to `Cc1cc(C)c2c(N)c(-c3nc4ccccc4[nH]3)sc2n1`, the “hERG current change (%, negative = inhibition) at 1uM” value rises from 13.3% to 17%.

Compared with `COc1ccc(/C=N/N=C/c2ccc(OC)c(O)c2)cc1O`, `COc1ccc(NC(=O)Nc2ccc(F)c(F)c2)c(OC)c1` is lower in “hERG current change (%, negative = inhibition) at 1uM” value: 16.1% for the first, 6.37% for the second.

First: O=C(CN(Cc1ccco1)Cc1cccs1)N1CCN(S(=O)(=O)c2cccc(F)c2)CC1
Second: O=C(CS(=O)(=O)Cc1ccccc1)N1CCN(c2cccc(C(F)(F)F)c2)CC1
The “hERG current change (%, negative = inhibition) at 1uM” value of the first is lower: -5.32% for the first, -3.7% for the second.

First: O=S(=O)(NCC1CCCO1)c1ccc(S(=O)(=O)N(Cc2ccccc2F)C2CCCCC2)cc1 (stereo not shown)
Second: Cc1ccccc1CN1C2=NCCN2c2ccccc21.Cl
The “hERG current change (%, negative = inhibition) at 1uM” value of the first is higher: 0.814% for the first, -13.7% for the second.

Going from `NC(=O)c1cnn2c1NC(c1ccc(F)cc1)CC2C(F)(F)F` (stereo not shown) to `CCC1=NN(C(=O)Cc2ccc([N+](=O)[O-])cc2)C(O)(C(F)(F)F)C1` (stereo not shown), the “hERG current change (%, negative = inhibition) at 1uM” value rises from -9.89% to 1.5%.

First: COc1ccc(Cc2nnc(SC(C)C(=O)Nc3ccc(F)cc3Cl)o2)cc1 (stereo not shown)
Second: Cc1ccc(CCC(=O)Nc2ccc([N+](=O)[O-])cc2Cl)o1
The “hERG current change (%, negative = inhibition) at 1uM” value of the first is higher: 11% for the first, 8.33% for the second.

Compared with `O=C(NCCCn1ccnc1)Nc1ccc(Cl)c(Cl)c1`, `Cc1ccc(NC(=O)CCC(=O)N/N=C/c2ccc(O)cc2)cc1` is higher in “hERG current change (%, negative = inhibition) at 1uM” value: -4.67% for the first, 17.8% for the second.

Going from `Cc1cccc(C)c1NC(=O)CCCN1CC(C)OC(C)C1` (stereo not shown) to `CCc1nccn1CCC(=O)NC1CC(C)(C)Cc2c1cnn2-c1ccc(OC)cc1` (stereo not shown), the “hERG current change (%, negative = inhibition) at 1uM” value falls from 8.94% to 6.47%.

First: C#CCOCCOCCOCCNc1nc(N2CCOCC2)nc(N2CCN(C(=O)[C@H](Cc3ccc(O)cc3)n3cc([C@@H](N)CC(C)C)nn3)CC2)n1.Cl
Second: CCCC1(C(=O)OCC)NC(c2ccc(O)cc2)C2C(=O)N(c3cccc(C(C)=O)c3)C(=O)C21 (stereo not shown)
The “hERG current change (%, negative = inhibition) at 1uM” value of the first is lower: 0.33% for the first, 13.8% for the second.

Compared with `CCOc1ccc(NC(=O)CNC(=O)c2cn(-c3ccccc3OC)c(=O)c3ccccc23)cc1`, `COc1cc(/C=C(/C#N)C(=O)Nc2ccccc2)c(Br)cc1OCc1ccc(C(=O)O)cc1` is lower in “hERG current change (%, negative = inhibition) at 1uM” value: 8.19% for the first, 4.35% for the second.

Going from `Cc1ccc(-c2n[nH]c(=S)c3ccccc23)cc1` to `COc1ccccc1Oc1ccnc2cc(Cl)ccc12`, the “hERG current change (%, negative = inhibition) at 1uM” value rises from 6.87% to 13.2%.

First: CCC1NC(C(=O)O)Cc2c1[nH]c1ccccc21 (stereo not shown)
Second: CC12CCC(=O)N1C(C(=O)Nc1nc3ccc(Cl)cc3s1)CS2 (stereo not shown)
The “hERG current change (%, negative = inhibition) at 1uM” value of the first is lower: 9.76% for the first, 19.2% for the second.

First: CC1N(O)C2CCCCCC2N1O (stereo not shown)
Second: Cc1csc2ncc(C(=O)Nc3ccon3)c(=O)n12
The “hERG current change (%, negative = inhibition) at 1uM” value of the first is higher: 18.5% for the first, 8.38% for the second.
